No constants are given. Whether binding was seen depends on the method and setting. In cells and extracts the contact can be indirect. Some binding calls cover weakened binding; strength is not graded here. For part of these data: Sequences can lack the tags named with a protein.

Chains of the proteins cited; added tags and fusions are not shown. Lines headed by an entry give the natural chain unless they say otherwise; changes in a name come on top. A line that says so, or that is headed by a name, gives the form on record, which may keep a tag or linker. Residues count along the entry.
UniProt P23201: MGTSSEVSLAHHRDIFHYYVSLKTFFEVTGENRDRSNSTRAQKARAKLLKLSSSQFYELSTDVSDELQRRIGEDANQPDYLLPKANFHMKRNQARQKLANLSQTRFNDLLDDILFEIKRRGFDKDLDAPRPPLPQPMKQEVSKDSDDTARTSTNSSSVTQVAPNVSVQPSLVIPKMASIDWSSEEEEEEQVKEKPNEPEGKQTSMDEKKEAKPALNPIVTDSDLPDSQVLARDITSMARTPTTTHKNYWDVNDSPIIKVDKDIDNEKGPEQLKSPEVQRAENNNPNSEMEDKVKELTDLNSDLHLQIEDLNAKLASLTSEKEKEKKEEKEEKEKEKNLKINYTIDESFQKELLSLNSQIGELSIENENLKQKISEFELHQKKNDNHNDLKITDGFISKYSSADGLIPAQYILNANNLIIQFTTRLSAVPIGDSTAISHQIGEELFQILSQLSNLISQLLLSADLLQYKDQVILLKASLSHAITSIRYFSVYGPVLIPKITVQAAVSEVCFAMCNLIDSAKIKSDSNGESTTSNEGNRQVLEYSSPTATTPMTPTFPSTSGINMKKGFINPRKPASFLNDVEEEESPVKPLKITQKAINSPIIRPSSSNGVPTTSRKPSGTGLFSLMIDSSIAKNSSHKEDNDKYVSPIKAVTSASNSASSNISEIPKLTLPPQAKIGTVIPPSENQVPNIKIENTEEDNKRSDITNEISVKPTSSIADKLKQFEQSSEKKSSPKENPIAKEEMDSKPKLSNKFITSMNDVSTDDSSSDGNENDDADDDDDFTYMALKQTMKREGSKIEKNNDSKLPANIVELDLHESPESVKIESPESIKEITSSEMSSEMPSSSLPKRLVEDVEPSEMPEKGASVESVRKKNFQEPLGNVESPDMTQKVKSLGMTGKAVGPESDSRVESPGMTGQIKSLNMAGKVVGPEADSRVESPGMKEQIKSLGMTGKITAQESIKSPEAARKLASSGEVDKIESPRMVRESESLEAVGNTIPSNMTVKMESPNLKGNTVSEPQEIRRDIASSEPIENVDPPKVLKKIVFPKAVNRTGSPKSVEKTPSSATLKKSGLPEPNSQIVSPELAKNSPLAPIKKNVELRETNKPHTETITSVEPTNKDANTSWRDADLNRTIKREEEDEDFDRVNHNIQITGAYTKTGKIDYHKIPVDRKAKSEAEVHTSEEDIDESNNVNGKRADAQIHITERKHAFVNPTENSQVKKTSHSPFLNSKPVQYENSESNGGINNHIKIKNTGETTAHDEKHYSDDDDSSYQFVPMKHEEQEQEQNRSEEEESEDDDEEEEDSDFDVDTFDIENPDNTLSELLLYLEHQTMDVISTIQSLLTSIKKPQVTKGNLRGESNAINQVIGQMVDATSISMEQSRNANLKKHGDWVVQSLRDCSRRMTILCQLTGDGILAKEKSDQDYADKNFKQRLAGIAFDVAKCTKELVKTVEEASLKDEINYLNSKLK
SHD1CRU: residues 1-124 of P23201
SHD1CRU with L101A (P23201, form named): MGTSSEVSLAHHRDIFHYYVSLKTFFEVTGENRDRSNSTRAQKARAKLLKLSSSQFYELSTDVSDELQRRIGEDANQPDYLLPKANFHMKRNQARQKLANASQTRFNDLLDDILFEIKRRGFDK
SHD1CRU with L109A (P23201, form named): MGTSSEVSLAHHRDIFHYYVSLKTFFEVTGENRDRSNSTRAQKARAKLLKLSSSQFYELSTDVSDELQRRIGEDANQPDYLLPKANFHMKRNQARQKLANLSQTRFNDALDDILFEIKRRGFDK
SHD1CRU with L48A (P23201, form named): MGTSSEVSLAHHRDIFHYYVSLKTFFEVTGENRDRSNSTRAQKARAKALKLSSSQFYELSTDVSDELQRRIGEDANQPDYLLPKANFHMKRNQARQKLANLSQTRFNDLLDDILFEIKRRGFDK
SHD1CRU with L51A (P23201, form named): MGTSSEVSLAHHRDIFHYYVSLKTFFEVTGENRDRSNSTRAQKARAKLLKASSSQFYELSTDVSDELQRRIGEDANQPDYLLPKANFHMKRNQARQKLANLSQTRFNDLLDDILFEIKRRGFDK

The record followed here is article PMC12831199.

Assay [1] deals with T1, Msb3CRU (Saccharomyces cerevisiae) (UniProt P48566).
T1 sequence: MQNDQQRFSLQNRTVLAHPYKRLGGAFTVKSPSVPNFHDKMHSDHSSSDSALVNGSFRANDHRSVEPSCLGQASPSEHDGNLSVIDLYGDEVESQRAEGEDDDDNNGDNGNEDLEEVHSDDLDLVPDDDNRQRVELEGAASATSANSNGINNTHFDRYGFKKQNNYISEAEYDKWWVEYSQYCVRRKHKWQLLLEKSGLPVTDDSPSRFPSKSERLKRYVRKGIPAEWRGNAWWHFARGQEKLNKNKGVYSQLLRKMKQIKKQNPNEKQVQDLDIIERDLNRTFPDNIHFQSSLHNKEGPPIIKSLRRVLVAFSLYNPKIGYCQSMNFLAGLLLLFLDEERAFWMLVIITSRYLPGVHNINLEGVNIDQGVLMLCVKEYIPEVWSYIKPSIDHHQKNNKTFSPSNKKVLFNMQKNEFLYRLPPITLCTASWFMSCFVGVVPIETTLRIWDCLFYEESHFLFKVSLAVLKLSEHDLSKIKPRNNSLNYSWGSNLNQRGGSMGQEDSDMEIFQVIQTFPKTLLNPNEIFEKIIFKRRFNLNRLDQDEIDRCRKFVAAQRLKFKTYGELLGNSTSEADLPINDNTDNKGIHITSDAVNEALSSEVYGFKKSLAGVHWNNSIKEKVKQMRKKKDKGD
Description: split reporter; Split-Ub: four independent transformants each, directly transferred from selective medium onto 5-FOA medium (Fig. 1E).

Assay [2] addresses T2, Msb4CRU (Saccharomyces cerevisiae) (UniProt Q12317).
T2 sequence: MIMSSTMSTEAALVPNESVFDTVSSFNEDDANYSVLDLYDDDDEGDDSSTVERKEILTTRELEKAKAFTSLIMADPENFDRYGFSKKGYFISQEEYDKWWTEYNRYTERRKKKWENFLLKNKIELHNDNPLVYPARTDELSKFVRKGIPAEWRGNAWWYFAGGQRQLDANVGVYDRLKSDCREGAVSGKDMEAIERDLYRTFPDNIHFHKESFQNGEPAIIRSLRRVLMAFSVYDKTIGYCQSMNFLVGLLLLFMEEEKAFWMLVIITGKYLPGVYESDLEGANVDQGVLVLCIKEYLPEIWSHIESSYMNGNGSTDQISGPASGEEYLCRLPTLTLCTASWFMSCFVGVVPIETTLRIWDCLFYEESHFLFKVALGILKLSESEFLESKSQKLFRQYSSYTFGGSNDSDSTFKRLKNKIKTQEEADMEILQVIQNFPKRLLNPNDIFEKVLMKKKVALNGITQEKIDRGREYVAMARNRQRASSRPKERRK
Described as above.

Assay [3] deals with T1, Msb3CRU (Saccharomyces cerevisiae). Description: split reporter; small-scale Split-Ub: diploid cells co-expressing a Nub and a CRU fusion spotted in 10-fold serial dilutions from OD600=1 on SD medium with 5-FOA, 30°C, 2-5 days.
Assay [4] concerns the target full-length Spa2CRU (Saccharomyces cerevisiae) (UniProt P23201). Description: split reporter; foldback competition assay with full-length Spa2CRU extended at its N-terminus, Split-Ub as in Fig. 1E (transformants transferred onto 5-FOA medium) (Fig. 3B).
The target in assay [5] is SHD1CRU (Saccharomyces cerevisiae) (UniProt P23201). The assay can be described thus: split reporter; small-scale Split-Ub: diploid cells co-expressing a Nub and a CRU fusion spotted in 10-fold serial dilutions from OD600=1 on SD medium with 5-FOA, 30°C, 2-5 days.
For assay [6], the target named is SHD1CRU with L101A (Saccharomyces cerevisiae) (UniProt P23201). Described as above.
For assay [7], the target named is SHD1CRU with L109A (Saccharomyces cerevisiae) (UniProt P23201). The assay is described as above.
Assay [8] addresses SHD1CRU with L48A (Saccharomyces cerevisiae) (UniProt P23201). The assay is described as above.
For assay [9], the target named is SHD1CRU with L51A (Saccharomyces cerevisiae) (UniProt P23201). The assay is described as above.
The target of assay [10] is SHD1_(K97D) (CRU fusion) (Saccharomyces cerevisiae) (UniProt P23201). Described as above.
For assay [11], the target named is T3, Ste5CRU (Saccharomyces cerevisiae) (UniProt P32917).
T3 sequence: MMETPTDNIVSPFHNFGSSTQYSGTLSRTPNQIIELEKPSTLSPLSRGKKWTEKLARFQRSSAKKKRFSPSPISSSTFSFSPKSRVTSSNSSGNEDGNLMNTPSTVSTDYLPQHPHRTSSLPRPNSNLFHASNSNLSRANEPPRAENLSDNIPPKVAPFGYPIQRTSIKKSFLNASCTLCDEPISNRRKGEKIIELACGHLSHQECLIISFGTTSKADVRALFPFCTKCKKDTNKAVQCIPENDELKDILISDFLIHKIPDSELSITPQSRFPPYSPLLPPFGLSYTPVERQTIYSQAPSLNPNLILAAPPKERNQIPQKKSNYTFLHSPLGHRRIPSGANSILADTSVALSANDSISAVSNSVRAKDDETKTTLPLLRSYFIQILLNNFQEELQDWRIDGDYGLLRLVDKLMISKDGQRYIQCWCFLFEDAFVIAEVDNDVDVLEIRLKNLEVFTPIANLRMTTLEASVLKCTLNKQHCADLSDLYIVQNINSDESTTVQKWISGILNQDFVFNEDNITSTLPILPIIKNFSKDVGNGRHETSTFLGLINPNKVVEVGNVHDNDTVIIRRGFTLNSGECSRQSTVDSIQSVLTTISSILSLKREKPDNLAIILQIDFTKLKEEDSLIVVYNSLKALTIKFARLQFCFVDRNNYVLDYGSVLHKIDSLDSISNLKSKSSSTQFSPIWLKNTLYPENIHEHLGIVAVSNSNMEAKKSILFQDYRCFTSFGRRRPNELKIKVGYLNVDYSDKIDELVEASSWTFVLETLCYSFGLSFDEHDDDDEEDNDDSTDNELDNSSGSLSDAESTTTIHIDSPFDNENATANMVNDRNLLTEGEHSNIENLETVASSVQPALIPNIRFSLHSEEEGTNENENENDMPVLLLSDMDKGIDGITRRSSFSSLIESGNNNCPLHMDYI
The description is as above.

Assay [12] concerns the target SHD1CRU (Saccharomyces cerevisiae) (UniProt P23201). The assay can be described thus: split reporter; large-scale split-ubiquitin (Split-Ub) array: PMET17-SHD1CRU a-strain mated with a library of Nub-fusion α-strains; diploids as quadruplets on SD medium without methionine with 1 mg/ml 5-FOA and copper sulfate; colony growth indicates interaction.
The target in assay [13] is T4, Msb3_(Δ76-93)CRU (Saccharomyces cerevisiae) (UniProt P48566).
T4 sequence: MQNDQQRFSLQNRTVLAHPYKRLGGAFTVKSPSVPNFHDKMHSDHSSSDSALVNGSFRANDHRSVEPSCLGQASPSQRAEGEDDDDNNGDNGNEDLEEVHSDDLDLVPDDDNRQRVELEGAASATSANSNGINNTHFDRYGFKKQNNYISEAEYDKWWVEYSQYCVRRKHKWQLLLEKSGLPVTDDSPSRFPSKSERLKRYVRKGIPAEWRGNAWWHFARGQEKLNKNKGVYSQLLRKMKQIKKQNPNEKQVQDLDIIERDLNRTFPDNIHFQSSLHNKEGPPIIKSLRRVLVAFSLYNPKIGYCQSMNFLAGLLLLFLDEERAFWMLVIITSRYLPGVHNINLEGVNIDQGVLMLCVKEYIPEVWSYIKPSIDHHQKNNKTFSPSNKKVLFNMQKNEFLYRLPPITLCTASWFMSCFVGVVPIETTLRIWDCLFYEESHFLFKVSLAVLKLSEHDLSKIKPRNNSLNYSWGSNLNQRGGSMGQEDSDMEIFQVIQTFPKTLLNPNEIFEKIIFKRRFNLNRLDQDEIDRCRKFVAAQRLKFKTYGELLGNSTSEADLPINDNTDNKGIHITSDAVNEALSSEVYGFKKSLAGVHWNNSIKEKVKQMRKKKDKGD
Description: split reporter; Split-Ub: four independent transformants each, directly transferred from selective medium onto 5-FOA medium (Fig. 1E).

Assay [14] concerns the target T5, Msb4_(Δ27-44)CRU (Saccharomyces cerevisiae) (UniProt Q12317).
T5 sequence: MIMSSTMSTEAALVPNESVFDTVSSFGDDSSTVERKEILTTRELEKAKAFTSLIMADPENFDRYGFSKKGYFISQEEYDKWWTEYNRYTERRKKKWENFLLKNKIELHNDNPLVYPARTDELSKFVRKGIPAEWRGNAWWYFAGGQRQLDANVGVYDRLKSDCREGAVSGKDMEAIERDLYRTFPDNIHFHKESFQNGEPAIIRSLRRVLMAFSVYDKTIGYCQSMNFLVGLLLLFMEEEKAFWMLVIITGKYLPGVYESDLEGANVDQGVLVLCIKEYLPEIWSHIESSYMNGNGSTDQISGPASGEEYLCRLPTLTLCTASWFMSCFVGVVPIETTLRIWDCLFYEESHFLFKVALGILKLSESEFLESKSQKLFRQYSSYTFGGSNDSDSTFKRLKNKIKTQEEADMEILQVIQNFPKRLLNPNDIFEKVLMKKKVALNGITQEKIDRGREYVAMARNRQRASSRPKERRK
The assay is described as above.

Turning to Nub–Spa2 (from UniProt P23201 1-1466), the binding result in assay [1], in [2] and in assay [3] was “binds” each time.

B1: Nub–Ste7 (protein, UniProt P06784 1-515)
chain: MFQRKTLQRRNLKGLNLNLHPDVGNNGQLQEKTETHQGQSRIEGHVMSNINAIQNNSNLFLRRGIKKKLTLDAFGDDQAISKPNTVVIQQPQNEPVLVLSSLSQSPCVSSSSSLSTPCIIDAYSNNFGLSPSSTNSTPSTIQGLSNIATPVENEHSISLPPLEESLSPAAADLKDTLSGTSNGNYIQLQDLVQLGKIGAGNSGTVVKALHVPDSKIVAKKTIPVEQNNSTIINQLVRELSIVKNVKPHENIITFYGAYYNQHINNEIIILMEYSDCGSLDKILSVYKRFVQRGTVSSKKTWFNELTISKIAYGVLNGLDHLYRQYKIIHRDIKPSNVLINSKGQIKLCDFGVSKKLINSIADTFVGTSTYMSPERIQGNVYSIKGDVWSLGLMIIELVTGEFPLGGHNDTPDGILDLLQRIVNEPSPRLPKDRIYSKEMTDFVNRCCIKNERERSSIHELLHHDLIMKYVSPSKDDKFRHWCRKIKSKIKEDKRIKREALDRAKLEKKQSERSTH
For B1, the binding result in [4] is “no binding”; in assay [5] it was “binds”; in assay [6] it was “no binding”; in assay [7] it was “no binding”; in assay [8] it was “no binding”; in assay [9], “no binding”. In addition, the binding result in [10], in [11] and in assay [12] was “binds” each time.

B2: Nub–Ste7_(Δ119-123) (protein, UniProt P06784)
chain: MFQRKTLQRRNLKGLNLNLHPDVGNNGQLQEKTETHQGQSRIEGHVMSNINAIQNNSNLFLRRGIKKKLTLDAFGDDQAISKPNTVVIQQPQNEPVLVLSSLSQSPCVSSSSSLSTPCSNNFGLSPSSTNSTPSTIQGLSNIATPVENEHSISLPPLEESLSPAAADLKDTLSGTSNGNYIQLQDLVQLGKIGAGNSGTVVKALHVPDSKIVAKKTIPVEQNNSTIINQLVRELSIVKNVKPHENIITFYGAYYNQHINNEIIILMEYSDCGSLDKILSVYKRFVQRGTVSSKKTWFNELTISKIAYGVLNGLDHLYRQYKIIHRDIKPSNVLINSKGQIKLCDFGVSKKLINSIADTFVGTSTYMSPERIQGNVYSIKGDVWSLGLMIIELVTGEFPLGGHNDTPDGILDLLQRIVNEPSPRLPKDRIYSKEMTDFVNRCCIKNERERSSIHELLHHDLIMKYVSPSKDDKFRHWCRKIKSKIKEDKRIKREALDRAKLEKKQSERSTH
Take B2: the figures for the binding result in [5] and in assay [11] were “no binding” and “binds”, respectively.

B3: Nub–Sec4 (protein, UniProt P07560 1-215)
chain: MSGLRTVSASSGNGKSYDSIMKILLIGDSGVGKSCLLVRFVEDKFNPSFITTIGIDFKIKTVDINGKKVKLQLWDTAGQERFRTITTAYYRGAMGIILVYDVTDERTFTNIKQWFKTVNEHANDEAQLLLVGNKSDMETRVVTADQGEALAKELGIPFIESSAKNDDNVNEIFFTLAKLIQEKIDSNKLVGVGNGKEGNISINSGSGNSSKSNCC
For the molecule B3, the binding result in assay [1], in [13], in assay [2] and in assay [14] was “binds” each time.
